# Source: article PMC9911399, “Two distinct binding modes provide the RNA-binding protein RbFox with extraordinary sequence specificity”
# Where a chain is given by its changes, count along the chain named. The list shows a part of the results.
# T1: RBFOX1 RRM RbFoxmut (Fox-RRM*) (Homo sapiens, UniProt Q9NWB1 109-208, R118D;E147R;N151S;E152T)
# T1 sequence: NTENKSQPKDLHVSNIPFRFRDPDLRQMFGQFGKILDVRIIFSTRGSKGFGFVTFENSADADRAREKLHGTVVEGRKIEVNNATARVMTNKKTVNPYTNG
# B1: UCCGCGU (DNA:RNA)
# RNA: GGGAGACCGGAAUUCAGAUUGUCCUCCGCGUUUAAAUCCCGUCGUAGCCACCA
# DNA 1: CAATCTGAATTCCGGTCTCCC
# DNA 2: TGGTGGCTACGACGGGATT
# B2: ACCUGCU (DNA:RNA)
# RNA: B1 RNA with U25A, G28U, C29G, G30C
# DNA 1: CAATCTGAATTCCGGTCTCCC
# DNA 2: TGGTGGCTACGACGGGATT
# B3: CCGGUAC (DNA:RNA)
# RNA: B1 RNA with U25C, C27G, C29U, G30A, U31C
# DNA 1: CAATCTGAATTCCGGTCTCCC
# DNA 2: TGGTGGCTACGACGGGATT
# B4: UAGCCAG (DNA:RNA)
# RNA: B1 RNA with C26A, C27G, G28C, G30A, U31G
# DNA 1: CAATCTGAATTCCGGTCTCCC
# DNA 2: TGGTGGCTACGACGGGATT
# B5: AUUAGAC (DNA:RNA)
# RNA: GGGAGACCGGAAUUCAGAUUGUCCAUUAGACUUAAAUCCCGUCGUAGCCACCA
# DNA 1: CAATCTGAATTCCGGTCTCCC
# DNA 2: TGGTGGCTACGACGGGATT
# B6: CAAUUGG (DNA:RNA)
# RNA: B1 RNA with U25C, C26A, C27A, G28U, C29U, U31G
# DNA 1: CAATCTGAATTCCGGTCTCCC
# DNA 2: TGGTGGCTACGACGGGATT
# B7: GAUACUU (DNA:RNA)
# RNA: B5 RNA with A25G, U26A, G29C, A30U, C31U
# DNA 1: CAATCTGAATTCCGGTCTCCC
# DNA 2: TGGTGGCTACGACGGGATT
# B8: UGAAUGA (DNA:RNA)
# RNA: B1 RNA with C26G, C27A, G28A, C29U, U31A
# DNA 1: CAATCTGAATTCCGGTCTCCC
# DNA 2: TGGTGGCTACGACGGGATT
# B9: UGCGAGA (DNA:RNA)
# RNA: B1 RNA with C26G, C29A, U31A
# DNA 1: CAATCTGAATTCCGGTCTCCC
# DNA 2: TGGTGGCTACGACGGGATT
# B10: CCACUAU (DNA:RNA)
# RNA: B1 RNA with U25C, C27A, G28C, C29U, G30A
# DNA 1: CAATCTGAATTCCGGTCTCCC
# DNA 2: TGGTGGCTACGACGGGATT
# B11: UGGGAUC (DNA:RNA)
# RNA: B1 RNA with C26G, C27G, C29A, G30U, U31C
# DNA 1: CAATCTGAATTCCGGTCTCCC
# DNA 2: TGGTGGCTACGACGGGATT
# B12: GCUCGGG (DNA:RNA)
# RNA: B5 RNA with A25G, U26C, A28C, A30G, C31G
# DNA 1: CAATCTGAATTCCGGTCTCCC
# DNA 2: TGGTGGCTACGACGGGATT
# B13: ACGCUCG (DNA:RNA)
# RNA: B5 RNA with U26C, U27G, A28C, G29U, A30C, C31G
# DNA 1: CAATCTGAATTCCGGTCTCCC
# DNA 2: TGGTGGCTACGACGGGATT
# B14: AAUAGGU (DNA:RNA)
# RNA: B5 RNA with U26A, A30G, C31U
# DNA 1: CAATCTGAATTCCGGTCTCCC
# DNA 2: TGGTGGCTACGACGGGATT
# B15: UGUAUUC (DNA:RNA)
# RNA: B5 RNA with A25U, U26G, G29U, A30U
# DNA 1: CAATCTGAATTCCGGTCTCCC
# DNA 2: TGGTGGCTACGACGGGATT
# B16: AUUAGGA (DNA:RNA)
# RNA: B5 RNA with A30G, C31A
# DNA 1: CAATCTGAATTCCGGTCTCCC
# DNA 2: TGGTGGCTACGACGGGATT
# B17: CGUUGCC (DNA:RNA)
# RNA: B5 RNA with A25C, U26G, A28U, A30C
# DNA 1: CAATCTGAATTCCGGTCTCCC
# DNA 2: TGGTGGCTACGACGGGATT
# B18: CCUCGAC (DNA:RNA)
# RNA: B5 RNA with A25C, U26C, A28C
# DNA 1: CAATCTGAATTCCGGTCTCCC
# DNA 2: TGGTGGCTACGACGGGATT
# B19: UAUGUAU (DNA:RNA)
# RNA: B1 RNA with C26A, C27U, C29U, G30A
# DNA 1: CAATCTGAATTCCGGTCTCCC
# DNA 2: TGGTGGCTACGACGGGATT
# B20: GGCAGGC (DNA:RNA)
# RNA: B5 RNA with A25G, U26G, U27C, A30G
# DNA 1: CAATCTGAATTCCGGTCTCCC
# DNA 2: TGGTGGCTACGACGGGATT
# B21: GCUAUCU (DNA:RNA)
# RNA: B5 RNA with A25G, U26C, G29U, A30C, C31U
# DNA 1: CAATCTGAATTCCGGTCTCCC
# DNA 2: TGGTGGCTACGACGGGATT
# B22: UUUUGCA (DNA:RNA)
# RNA: B5 RNA with A25U, A28U, A30C, C31A
# DNA 1: CAATCTGAATTCCGGTCTCCC
# DNA 2: TGGTGGCTACGACGGGATT
# B23: AGGGAGC (DNA:RNA)
# RNA: B5 RNA with U26G, U27G, A28G, G29A, A30G
# DNA 1: CAATCTGAATTCCGGTCTCCC
# DNA 2: TGGTGGCTACGACGGGATT
# B24: GAUACCG (DNA:RNA)
# RNA: B5 RNA with A25G, U26A, G29C, A30C, C31G
# DNA 1: CAATCTGAATTCCGGTCTCCC
# DNA 2: TGGTGGCTACGACGGGATT
# B25: UAACUGG (DNA:RNA)
# RNA: B1 RNA with C26A, C27A, G28C, C29U, U31G
# DNA 1: CAATCTGAATTCCGGTCTCCC
# DNA 2: TGGTGGCTACGACGGGATT
# B26: UCGUGUU (DNA:RNA)
# RNA: B1 RNA with C27G, G28U, C29G, G30U
# DNA 1: CAATCTGAATTCCGGTCTCCC
# DNA 2: TGGTGGCTACGACGGGATT
# B27: AUACGAA (DNA:RNA)
# RNA: B5 RNA with U27A, A28C, C31A
# DNA 1: CAATCTGAATTCCGGTCTCCC
# DNA 2: TGGTGGCTACGACGGGATT
# B28: UGGCAUA (DNA:RNA)
# RNA: B1 RNA with C26G, C27G, G28C, C29A, G30U, U31A
# DNA 1: CAATCTGAATTCCGGTCTCCC
# DNA 2: TGGTGGCTACGACGGGATT
# B29: CGAUGGC (DNA:RNA)
# RNA: B5 RNA with A25C, U26G, U27A, A28U, A30G
# DNA 1: CAATCTGAATTCCGGTCTCCC
# DNA 2: TGGTGGCTACGACGGGATT
# B30: AAGACCG (DNA:RNA)
# RNA: B5 RNA with U26A, U27G, G29C, A30C, C31G
# DNA 1: CAATCTGAATTCCGGTCTCCC
# DNA 2: TGGTGGCTACGACGGGATT
# B31: AAAAACC (DNA:RNA)
# RNA: B5 RNA with U26A, U27A, G29A, A30C
# DNA 1: CAATCTGAATTCCGGTCTCCC
# DNA 2: TGGTGGCTACGACGGGATT
# Biological target: T1, RBFOX1 RRM RbFoxmut (Fox-RRM*)
# Assay: EMSA; HiTS-Eq, 1 nM pool, 10 min; buffer printed only for the single-RNA assays: 10 mM Tris pH 7.5, 150 mM NaCl, 3.4 mM EDTA, 0.001% NP-40, 30 C
# Settings: tags: His6 N-terminal (pET28a); label: 5' 32P
# Summary of the method: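 Relative association constants, normalised to the cognate motif, were derived by comparing read counts of each RNA species with those of the control reaction. The RNA sequenced was the free fraction, separated by 8% native PAGE after a 10 min equilibration in 50 µL of 1 nM 5′-radiolabelled RNA (7 randomized nucleotides) with increasing concentrations of purified wild-type or mutant RbFox RRM.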
row,Binder,binding signal
1,B1,0.0928 KA relative to UGCAUGU
2,B2,0.072 KA relative to UGCAUGU
3,B3,0.0716 KA relative to UGCAUGU
4,B4,0.0957 KA relative to UGCAUGU
5,B5,0.0913 KA relative to UGCAUGU
6,B6,0.0714 KA relative to UGCAUGU
7,B7,0.0808 KA relative to UGCAUGU
8,B8,0.46 KA relative to UGCAUGU
9,B9,0.0936 KA relative to UGCAUGU
10,B10,0.09 KA relative to UGCAUGU
11,B11,0.357 KA relative to UGCAUGU
12,B12,0.0939 KA relative to UGCAUGU
13,B13,0.128 KA relative to UGCAUGU
14,B14,0.105 KA relative to UGCAUGU
15,B15,0.207 KA relative to UGCAUGU
16,B16,0.0686 KA relative to UGCAUGU

row,Binder,binding signal
1,B17,0.254 KA relative to UGCAUGU
2,B18,0.0587 KA relative to UGCAUGU
3,B19,0.163 KA relative to UGCAUGU
4,B20,0.0452 KA relative to UGCAUGU
5,B21,0.0809 KA relative to UGCAUGU
6,B22,0.206 KA relative to UGCAUGU
7,B23,0.11 KA relative to UGCAUGU
8,B24,0.0736 KA relative to UGCAUGU
9,B25,0.0835 KA relative to UGCAUGU
10,B26,0.154 KA relative to UGCAUGU
11,B27,0.123 KA relative to UGCAUGU
12,B28,0.127 KA relative to UGCAUGU
13,B29,0.101 KA relative to UGCAUGU
14,B30,0.0856 KA relative to UGCAUGU
15,B31,0.0505 KA relative to UGCAUGU
